Biological target: Recombinant Human FGF-23 (R&D Systems, Cat No. 2604-FG-025/CF) (human) (UniProt Q9GZV9)
Assay: cell-based or functional assay

UniProt Q9GZV9, sequence (Q9GZV9 25-251 limits assumed): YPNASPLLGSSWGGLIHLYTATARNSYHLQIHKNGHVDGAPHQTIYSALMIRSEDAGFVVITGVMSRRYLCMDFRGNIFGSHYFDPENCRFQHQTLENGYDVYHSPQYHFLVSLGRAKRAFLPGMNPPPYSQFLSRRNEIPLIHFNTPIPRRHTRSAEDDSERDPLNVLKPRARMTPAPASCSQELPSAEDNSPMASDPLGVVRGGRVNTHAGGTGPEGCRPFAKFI

| FGF23 neutralizing activity IC50 (luciferase promoter assay) [ng/mL] | Binder |
| --- | --- |
| 13.3 | antibody D105N_IgG4PE_R409K_P (antibody) heavy: QVQLVQSGAEVKKPGASVKVSCKASGYTFTNHYMHWVRQAPGQGLEWMGIINPISGSTSNAQKFQGRVTMTRDTSTSTVYMELSSLRSEDTAVYYCARDIVDAFNFWGQGTMVTVSSASTKGPSVFPLAPCSRSTSESTAALGCLVKDYFPEPVTVSWNSGALTSGVHTFPAVLQSSGLYSLSSVVTVPSSSLGTKTYTCNVDHKPSNTKVDKRV[letters of human IgG4 Fc with S228P L235E V308P R409K (EU numbers) omitted] light: AIQLTQSPSSLSASVGDRVTITCRASQGISSALVWYQQKPGKAPKLLIYDASSLESGVPSRFSGSGSGTDFTLTISSLQPEDFATYYCQQFNDYFTFGPGTKVDIK |
| 5.2 | antibody I100A_IgG4PE_R409K_P (antibody) heavy: QVQLVQSGAEVKKPGASVKVSCKASGYTFTNHYMHWVRQAPGQGLEWMGIINPISGSTSNAQKFQGRVTMTRDTSTSTVYMELSSLRSEDTAVYYCARDAVDAFDFWGQGTMVTVSSASTKGPSVFPLAPCSRSTSESTAALGCLVKDYFPEPVTVSWNSGALTSGVHTFPAVLQSSGLYSLSSVVTVPSSSLGTKTYTCNVDHKPSNTKVDKRV[letters of human IgG4 Fc with S228P L235E V308P R409K (EU numbers) omitted] light: AIQLTQSPSSLSASVGDRVTITCRASQGISSALVWYQQKPGKAPKLLIYDASSLESGVPSRFSGSGSGTDFTLTISSLQPEDFATYYCQQFNDYFTFGPGTKVDIK |
| 4.1 | antibody I100Y_IgG4PE_R409K_P (antibody) heavy: QVQLVQSGAEVKKPGASVKVSCKASGYTFTNHYMHWVRQAPGQGLEWMGIINPISGSTSNAQKFQGRVTMTRDTSTSTVYMELSSLRSEDTAVYYCARDYVDAFDFWGQGTMVTVSSASTKGPSVFPLAPCSRSTSESTAALGCLVKDYFPEPVTVSWNSGALTSGVHTFPAVLQSSGLYSLSSVVTVPSSSLGTKTYTCNVDHKPSNTKVDKRV[letters of human IgG4 Fc with S228P L235E V308P R409K (EU numbers) omitted] light: AIQLTQSPSSLSASVGDRVTITCRASQGISSALVWYQQKPGKAPKLLIYDASSLESGVPSRFSGSGSGTDFTLTISSLQPEDFATYYCQQFNDYFTFGPGTKVDIK |
| 14.4 | antibody I100H_IgG4PE_R409K_P (antibody) heavy: QVQLVQSGAEVKKPGASVKVSCKASGYTFTNHYMHWVRQAPGQGLEWMGIINPISGSTSNAQKFQGRVTMTRDTSTSTVYMELSSLRSEDTAVYYCARDHVDAFDFWGQGTMVTVSSASTKGPSVFPLAPCSRSTSESTAALGCLVKDYFPEPVTVSWNSGALTSGVHTFPAVLQSSGLYSLSSVVTVPSSSLGTKTYTCNVDHKPSNTKVDKRV[letters of human IgG4 Fc with S228P L235E V308P R409K (EU numbers) omitted] light: AIQLTQSPSSLSASVGDRVTITCRASQGISSALVWYQQKPGKAPKLLIYDASSLESGVPSRFSGSGSGTDFTLTISSLQPEDFATYYCQQFNDYFTFGPGTKVDIK |

From patent US20250163140A1
